Test system: African green monkey kidney Vero cells infected with dengue
Assay: Gene expression profile by next generation sequencing, dengue-infected Vero cells
Type: cell-based
Conditions: dengue plus chlorophyllide relative to dengue-infected Vero cells

chlorophyllide
Log2 fold change, ABCC1 (gene ABCC1): −2.058 | Log2 fold change, ACSL3 (gene ACSL3): −1.699 | Log2 fold change, AGRN (gene AGRN): −1.539 | Log2 fold change, ATP2A2 (gene ATP2A2): −2.280 | Log2 fold change, BMPR2 (gene BMPR2): −1.641 | Log2 fold change, CALR (gene CALR): −1.590 | Log2 fold change, COL4A4 (gene COL4A4): −1.660 | Log2 fold change, DAG1 (gene DAG1): −1.806 | Log2 fold change, DNAJC3 (gene DNAJC3): −2.131 | Log2 fold change, EGFR (gene EGFR): −1.680 | Log2 fold change, EIF2AK3 (gene EIF2AK3): −1.719 | Log2 fold change, EPHA2 (gene EPHA2): −1.661 | Log2 fold change, FN1 (gene FN1): −3.808 | Log2 fold change, FTL (gene FTL): 1.194 | Log2 fold change, HMGCR (gene HMGCR): −2.042 | Log2 fold change, HSP90B1 (gene HSP90B1): −2.359 | Log2 fold change, HSPG2 (gene HSPG2): −2.242 | Log2 fold change, IL6ST (gene IL6ST): −1.880 | Log2 fold change, ITGA1 (gene ITGA1): −1.762 | Log2 fold change, NEO1 (gene NEO1): −1.905 | Log2 fold change, NOTCH2 (gene NOTCH2): −2.195 | Log2 fold change, NRP1 (gene NRP1): −1.611 | Log2 fold change, PDIA3 (gene PDIA3): −1.563 | Log2 fold change, PLIN2 (gene PLIN2): 1.440 | Log2 fold change, RELN (gene RELN): −2.398 | Log2 fold change, SCD (gene SCD): −1.735 | Log2 fold change, SLC7A1 (gene SLC7A1): −2.059 | Log2 fold change, TFRC (gene TFRC): −1.925 | Log2 fold change, VCAN (gene VCAN): −3.721

Source: patent US20220175728A1, “PHARMACEUTICAL USE OF CHLOROPHYLLIDE FOR ANTI-VIRAL INFECTION” (I-SHOU UNIVERSITY, priority 2020, published 2022)
